Results from patent US20030144336A1, “Method of selecting nonsedating H1-antagonists” (priority 2001, published 2003).
Where two headings read alike, the source gives them in different places.

Columns and labels:
MDR1 (P-gp) [1] = molecular target: T1, MDR1 (P-gp) (Homo sapiens, UniProt P08183); assay: in vitro; conditions: dog, MDCK-MDR1
in vivo = conditions: male, mouse, iv, 5 mg/kg
MDR1 (P-gp) [2] = molecular target: T1, MDR1 (P-gp)

| Papp A→B at 5 hr, 2 μM (MDR1 (P-gp) [1]) [×10⁻⁶ cm/s] | Papp B→A at 5 hr, 2 μM (MDR1 (P-gp) [1]) [×10⁻⁶ cm/s] | Vd (in vivo; FVB and mdr1a/1b KO, in vivo) [L/kg] | clearance (in vivo; FVB and mdr1a/1b KO, in vivo) [mL/min/kg] | Vd (in vivo; FVB, in vivo) [L/kg] | clearance (in vivo; FVB, in vivo) [mL/min/kg] | Vd (in vivo; mdr1a/1b KO, in vivo) [L/kg] | clearance (in vivo; mdr1a/1b KO, in vivo) [mL/min/kg] | MDR1 Substrate? (MDR1 (P-gp) [2]; MDCK-MDR1) | MDR1 Substrate? (MDR1 (P-gp) [2]; human, MDCK-MDR1, 5 h, 2 µM) | Vd (in vivo; FVB and mdr1a/1b KO, plasma) [L/kg] | clearance (in vivo; FVB and mdr1a/1b KO, plasma) [mL/min/kg] | Vd (in vivo; FVB, plasma) [L/kg] | clearance (in vivo; FVB, plasma) [mL/min/kg] | Vd (in vivo; mdr1a/1b KO, plasma) [L/kg] | clearance (in vivo; mdr1a/1b KO, plasma) [mL/min/kg] | SMILES |
| --- | --- | --- | --- | --- | --- | --- | --- | --- | --- | --- | --- | --- | --- | --- | --- | --- |
| 2.6 | 15.2 | 1 | 5.4 to 7.5 | 0.9 | 7.5 | 1.1 | 5.4 | Yes | MDR1-mediated transport | – | – | – | – | – | – | O=C(O)COCCN1CCN(C(c2ccccc2)c2ccc(Cl)cc2)CC1 (centres unmarked) [Cetirizine] |
| 24.8 | 21 | 1.3 to 1.6 | 62 to 66 | 1.3 | 66 | 1.6 | 62 | No | not MDR1 substrates | – | – | – | – | – | – | CN(C)CCOC(c1ccccc1)c1ccccc1 [Diphenhydramine] |
| – | – | – | – | – | – | – | – | – | – | ~2 | 83 to 99 | 2.2 | 99 | 2.1 | 83 | CCOC(=O)N1CCC(=C2c3ccc(Cl)cc3CCc3cccnc32)CC1 [Loratadine] |
